# Results published in the supplement of paper PMC11417369.
# This is one part of the list.
# Test system: PfHDP1 homeodomain (GST-tagged)
# Assay: gcPBM binding intensity (ln(normalized median fluorescence intensity)); higher = stronger DNA binding
# How it was run: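 Binding intensity values are the highest Masliner-normalised natural-log median intensity among replicate spots of either probe orientation. The binding step lasted 1 h in 1× PBS with 1% milk, 0.2 mg/ml BSA, 0.5% salmon testes DNA and 0.03% Triton X-100, using GST-tagged P. falciparum DNA-binding domains expressed in E. coli on an Agilent 4 × 180k array of primer-extended double-stranded 36-bp intergenic genomic probes plus negative controls. Alexa488 anti-GST antibody and a 488 nm scan detected bound protein.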
row,Sequence,gcPBM binding intensity (ln)
1,TATTTTTATATATAATCACACATTGGAATGTTCTAA [CACACA_site5540],6.53
2,ATAAATGATAGTAAAAGTACACAAAATGTTTTAAAA [XGTACX_site1623],6.33
3,TTCTTTATGGAAGTGTAAAAAAAGAAATACTTTTTT [CACACA_negctrl_site915],6.03
4,GCACGAAACAATGTATATATATATATATATATATAT [GTGCAC_negctrl_site412],9.54
5,AATAAATAGAGGAAATGTACATATAAAAATAATTTC [XGTACX_site2454],6.59
6,GATTATCTTCAAGTATGTACACACTATATATAATAA [XGTACX_site5108],6.64
7,TTAACATCTTCGTTGACACACAAAAAAAAAAATAAT [CACACA_site1819],6.3
8,ATTACATGTATACATGTCAACACGTATAAAAAAAAA [CACACA_negctrl_site1154],6.66
9,ATTATAAATATATTTTGTACTTAAAAGGAAAAAAAA [XGTACX_site55],6.21
10,TACACAAACAGACACACACACACACGCGCACAAAAA [CACACA_site7192],7.75
11,AATAAGCATAGACACACACACAAAAAAAAAAAAAAA [CACACA_site6476],6.46
12,TTATTTCTTCAGAAAAAATTAAAAAATTAAACAATA [CACACA_negctrl_site169],6.12
13,ATTTTTTTTTTTTTTTTTTTTTTTTTTTTTTTATGC [CACACA_negctrl_site1018],6.02
14,TTTTTTTTTTTTGTAGTGCAAATTAAAAATATATGT,9
15,ATTTTTTTTAAACGAAGTACAATTTGTGCATTGGAA [XGTACX_site8109],10.4
16,TATATATATATATATGTATGCATGTCCTTTTTTATT [TGCATGCA_site344],9.46
17,TGTTTATCATATTTGTGTCCTCATTTTTTAGTATCA [XGTACX_site947],6.62
18,TAATATTTTATTTTTGTTGTGGATCCAAAAAAAAAA [CACACA_negctrl_site846],6.13
19,CTATATATTTAAAAAAGTACAAATATAAAAATATAT [XGTACX_site676],6.65
20,TGTTTACACTTTTTTTGTACACATAATTTTATTTGA [XGTACX_site3760],6.98
21,AAAAAAAAAAAAAACACACACATATAACATATTTAA [CACACA_site6745],6.56
22,TATTCTAGTCTGCTTACACACATATTTATATTTATA [CACACA_site7432],7.53

row,Sequence,gcPBM binding intensity (ln)
1,AAAAAAAAAAAAAATACACACAAACACAAATTAAAT [CACACA_site5982],6.76
2,GTAATATTATAATATACACACATAGAATATATATAT [CACACA_site413],8.01
3,AAGATCATATATTCGTGGGTATAAAAAGTTATAATA [TGCATGCA_negctrl_site439],6.28
4,ACAAAAAAAAAGGAAACACACAAAAAAAAAAAATAA [CACACA_site3523],6.16
5,ACTATATTTCTATAATGTACAAAAATAAATCATATG [XGTACX_site3337],6.22
6,ACCTATAAAAAATAATGTACAGGAAGAAATATAAGG [XGTACX_site5822],6.99
7,TTTATTATCAAGATTGCACACCCTTATGAACTTTTT [CACACA_site3166],9.35
8,TAATTTACACCTACGTGTACACACAAAAATATGTTT [XGTACX_site1868],7.19
9,TGTATAAGGTTTTTACGTTTTGAAGGATGTATTGTT [CACACA_negctrl_site1245],6.41
10,TAGGTCATATTTTTTGCACACAAAAAAAAATATAAA [CACACA_site3380],9.79
11,CACCTCAATATTCACATACACACAATATCATCGAAG [CACACA_site1675],6.85
12,TTTTTCCAATCAGATGCATGTTACTATATTTGGTTC [TGCATGCA_site52],6.66
13,TATCATTTTGAAGTATGTACTTATTTTATTAAAATA [XGTACX_site7784],6.66
14,TAAATACATAAATACACACACATATATATATATATA [CACACA_site5549],9.43
15,ATTATATTAAAATATTCACACACTAACGTAAATCAT [CACACA_site8887],6.25
16,GTAAGTATATATAATAGTACATATATATTAATATAT [XGTACX_site4314],6.43
17,TACATAATTTTAATCACACACAAACAAACACATACA [CACACA_site194],7.27
18,TTTTGTTCATACAAATTGGAACAAGACAAAAATATA [XGTACX_negctrl_site327],6.56
19,AAGGAAAAAACAAATACACACAAAAACGCATTATAA [CACACA_site3466],6.84
20,ATGAACTTATTTTAGTGTACTAAAAAATATGACTTC [XGTACX_site470],6.18
21,GGGAGGATATTACACAGTACCCAGGAAATCTACGGA [XGTACX_site4874],6.69
22,TATGTTCCGAAGGTTGTACACACATAGAAATATACA [CACACA_site9285],6.85
